Laboratory results published in patent US11224646B2, “Intranasal delivery of a cyclic-di-nucleotide adjuvanted vaccine for tuberculosis” (priority 2018, dated 2022).

Tested on: M. tuberculosis strain Erdman
Details: mouse, in vivo

## Nc1nc2c(ncn2[C@@H]2O[C@@H]3COP(=O)(S)O[C@H]4[C@@H](O)[C@H](n5cnc6c(N)ncnc65)O[C@@H]4CO[P@@](=O)(S)O[C@@H]2[C@@H]3O)c(=O)[nH]1 (some centres unmarked) [ML-RR-cGAMP, dithio-[RP, RP]-cyclic-[G(2′,5′)pA(3′,5′)p]]
  additional protection afforded by intranasal administration: reduced
sc
  dependence of protection on IL-17: independent of IL-17
